Binding signal (RPM ratio (pull-down/input)) data for 63 sequences are collected here from article PMC12820563.

Some of the results follow. The list includes weakly bound sequences.

In the experiment the target is T1, MBP-FoxP3dN (UniProt Q99JB6).
T1 sequence: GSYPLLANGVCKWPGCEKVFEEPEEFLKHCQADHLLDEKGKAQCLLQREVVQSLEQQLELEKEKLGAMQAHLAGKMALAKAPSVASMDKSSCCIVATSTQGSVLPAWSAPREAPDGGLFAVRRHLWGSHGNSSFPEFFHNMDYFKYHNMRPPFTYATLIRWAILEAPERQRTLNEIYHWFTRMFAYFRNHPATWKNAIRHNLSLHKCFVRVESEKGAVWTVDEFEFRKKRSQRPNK
The experiment in a line: PD-seq (MBP pull-down with sequencing). Particulars: 20 mM Tris-HCl pH 7.5, 100 mM NaCl, 1.5 mM MgCl2, 0.4 uM protein, 0.1 uM dsDNA library, 30 min, room temperature, amylose pull-down; high values mean tight binding; double strand, one strand shown.
On to “GATGATTGTTCTCCCAGCTGATGAATTCATGCACTCGAGTAAACAAATTTTCCTAATCTTTCTGTTCAAGCGCCATCTAC”, for which the binding signal (RPM ratio (pull-down/input)) is 1.26.
Then “GATGATTGTTCTCCCAGCTGATGAATTCTACCAATCGAGTAAACAAATTTTCCTAATCTTTCTGTTCAAGCGCCATCTAC”, with 0.268; and “GATGATTGTTCTCCCAGCTGATGAATTCGCAATATCGAGTAAACAAATTTTCCTAATCTTTCTGTTCAAGCGCCATCTAC”, with 1.39.
As to “GATGATTGTTCTCCCAGCTGATGAATTGGGCTGCTCGAGTAAACAAATTTTCCTAATCTTTCTGTTCAAGCGCCATCTAC”, the binding signal (RPM ratio (pull-down/input)) was 0.483.
With “GATGATTGTTCTCCCAGCTGATGAATTACGTCTTTCGAGTAAACAAATTTTCCTAATCTTTCTGTTCAAGCGCCATCTAC”, the binding signal (RPM ratio (pull-down/input)) was 0.702.
As for “GATGATTGTTCTCCCAGCTGATGAATTCACTGGGTCGAGTAAACAAATTTTCCTAATCTTTCTGTTCAAGCGCCATCTAC”, the binding signal (RPM ratio (pull-down/input)) was 0.226.
The same measure for “GATGATTGTTCTCCCAGCTGATGAATTGCCACAATCGAGTAAACAAATTTTCCTAATCTTTCTGTTCAAGCGCCATCTAC”: 5.25; for “GATGATTGTTCTCCCAGCTGATGAATTCCAGGCCTCGAGTAAACAAATTTTCCTAATCTTTCTGTTCAAGCGCCATCTAC”: 0.422; for “GATGATTGTTCTCCCAGCTGATGAATTAAAGGTGTCGAGTAAACAAATTTTCCTAATCTTTCTGTTCAAGCGCCATCTAC”: 0.396.
The same measure for “GATGATTGTTCTCCCAGCTGATGAATTCTGCACCTCGAGTAAACAAATTTTCCTAATCTTTCTGTTCAAGCGCCATCTAC”: 2.03; for “GATGATTGTTCTCCCAGCTGATGAATTAGAGTCTTCGAGTAAACAAATTTTCCTAATCTTTCTGTTCAAGCGCCATCTAC”: 0.56; for “GATGATTGTTCTCCCAGCTGATGAATTTCAGCGCTCGAGTAAACAAATTTTCCTAATCTTTCTGTTCAAGCGCCATCTAC”: 0.363.
The same measure for “GATGATTGTTCTCCCAGCTGATGAATTAACAAATTCGAGTAAACAAATTTTCCTAATCTTTCTGTTCAAGCGCCATCTAC”: 0.494.
Take “GATGATTGTTCTCCCAGCTGATGAATTTACGGCATCGAGTAAACAAATTTTCCTAATCTTTCTGTTCAAGCGCCATCTAC”: the binding signal (RPM ratio (pull-down/input)) came to 1.03.
On to “GATGATTGTTCTCCCAGCTGATGAATTGATTGGATCGAGTAAACAAATTTTCCTAATCTTTCTGTTCAAGCGCCATCTAC”, for which the binding signal (RPM ratio (pull-down/input)) worked out at 0.484.
The same measure for “GATGATTGTTCTCCCAGCTGATGAATTTGTAGGTTCGAGTAAACAAATTTTCCTAATCTTTCTGTTCAAGCGCCATCTAC”: 4.05.
The same measure for “GATGATTGTTCTCCCAGCTGATGAATTTGCCTTGTCGAGTAAACAAATTTTCCTAATCTTTCTGTTCAAGCGCCATCTAC”: 1.15.
With “GATGATTGTTCTCCCAGCTGATGAATTACAACATTCGAGTAAACAAATTTTCCTAATCTTTCTGTTCAAGCGCCATCTAC”, the binding signal (RPM ratio (pull-down/input)) stood at 1.94.
The same measure for “GATGATTGTTCTCCCAGCTGATGAATTTCTTCCGTCGAGTAAACAAATTTTCCTAATCTTTCTGTTCAAGCGCCATCTAC”: 0.183; for “GATGATTGTTCTCCCAGCTGATGAATTAAGGCTATCGAGTAAACAAATTTTCCTAATCTTTCTGTTCAAGCGCCATCTAC”: 0.711; for “GATGATTGTTCTCCCAGCTGATGAATTATCTTTATCGAGTAAACAAATTTTCCTAATCTTTCTGTTCAAGCGCCATCTAC”: 0.825.
For “GATGATTGTTCTCCCAGCTGATGAATTGAGTACCTCGAGTAAACAAATTTTCCTAATCTTTCTGTTCAAGCGCCATCTAC”, the binding signal (RPM ratio (pull-down/input)) came to 0.541.
The same measure for “GATGATTGTTCTCCCAGCTGATGAATTATACGCTTCGAGTAAACAAATTTTCCTAATCTTTCTGTTCAAGCGCCATCTAC”: 0.584; for “GATGATTGTTCTCCCAGCTGATGAATTTTACAAATCGAGTAAACAAATTTTCCTAATCTTTCTGTTCAAGCGCCATCTAC”: 0.24.
Then “GATGATTGTTCTCCCAGCTGATGAATTATGATTCTCGAGTAAACAAATTTTCCTAATCTTTCTGTTCAAGCGCCATCTAC”, with 1.48; and “GATGATTGTTCTCCCAGCTGATGAATTCTCCTGCTCGAGTAAACAAATTTTCCTAATCTTTCTGTTCAAGCGCCATCTAC”, with 0.233; and “GATGATTGTTCTCCCAGCTGATGAATTTCTGCAGTCGAGTAAACAAATTTTCCTAATCTTTCTGTTCAAGCGCCATCTAC”, with 0.531.
As to “GATGATTGTTCTCCCAGCTGATGAATTTTTATAATCGAGTAAACAAATTTTCCTAATCTTTCTGTTCAAGCGCCATCTAC”, the binding signal (RPM ratio (pull-down/input)) came out at 0.44.
The same measure for “GATGATTGTTCTCCCAGCTGATGAATTCATGTGGTCGAGTAAACAAATTTTCCTAATCTTTCTGTTCAAGCGCCATCTAC”: 0.694; for “GATGATTGTTCTCCCAGCTGATGAATTGTACCCATCGAGTAAACAAATTTTCCTAATCTTTCTGTTCAAGCGCCATCTAC”: 0.472.
As to “GATGATTGTTCTCCCAGCTGATGAATTGACGGCATCGAGTAAACAAATTTTCCTAATCTTTCTGTTCAAGCGCCATCTAC”, the binding signal (RPM ratio (pull-down/input)) came to 0.813.
The same measure for “GATGATTGTTCTCCCAGCTGATGAATTGGGTGGGTCGAGTAAACAAATTTTCCTAATCTTTCTGTTCAAGCGCCATCTAC”: 0.552; for “GATGATTGTTCTCCCAGCTGATGAATTCGGGCTCTCGAGTAAACAAATTTTCCTAATCTTTCTGTTCAAGCGCCATCTAC”: 0.313; for “GATGATTGTTCTCCCAGCTGATGAATTAGCCCTCTCGAGTAAACAAATTTTCCTAATCTTTCTGTTCAAGCGCCATCTAC”: 0.33.
The same measure for “GATGATTGTTCTCCCAGCTGATGAATTGTAGCCGTCGAGTAAACAAATTTTCCTAATCTTTCTGTTCAAGCGCCATCTAC”: 0.622; for “GATGATTGTTCTCCCAGCTGATGAATTAGTATTTTCGAGTAAACAAATTTTCCTAATCTTTCTGTTCAAGCGCCATCTAC”: 2.03.
As to “GATGATTGTTCTCCCAGCTGATGAATTATGATGGTCGAGTAAACAAATTTTCCTAATCTTTCTGTTCAAGCGCCATCTAC”, the binding signal (RPM ratio (pull-down/input)) is 1.33.
Then “GATGATTGTTCTCCCAGCTGATGAATTAGTTTGTTCGAGTAAACAAATTTTCCTAATCTTTCTGTTCAAGCGCCATCTAC”, with 6.22.
“GATGATTGTTCTCCCAGCTGATGAATTAACTTGATCGAGTAAACAAATTTTCCTAATCTTTCTGTTCAAGCGCCATCTAC”: the binding signal (RPM ratio (pull-down/input)) was 0.242.
Take “GATGATTGTTCTCCCAGCTGATGAATTAACCTAATCGAGTAAACAAATTTTCCTAATCTTTCTGTTCAAGCGCCATCTAC”: the binding signal (RPM ratio (pull-down/input)) turned out to be 0.239.
Then “GATGATTGTTCTCCCAGCTGATGAATTACATACGTCGAGTAAACAAATTTTCCTAATCTTTCTGTTCAAGCGCCATCTAC”, with 0.558.
The same measure for “GATGATTGTTCTCCCAGCTGATGAATTGACCCTTTCGAGTAAACAAATTTTCCTAATCTTTCTGTTCAAGCGCCATCTAC”: 0.338; for “GATGATTGTTCTCCCAGCTGATGAATTGATCCGTTCGAGTAAACAAATTTTCCTAATCTTTCTGTTCAAGCGCCATCTAC”: 0.278; for “GATGATTGTTCTCCCAGCTGATGAATTTCCGTTGTCGAGTAAACAAATTTTCCTAATCTTTCTGTTCAAGCGCCATCTAC”: 0.56.
Then “GATGATTGTTCTCCCAGCTGATGAATTCACGGGCTCGAGTAAACAAATTTTCCTAATCTTTCTGTTCAAGCGCCATCTAC”, with 0.213; and “GATGATTGTTCTCCCAGCTGATGAATTCAATACGTCGAGTAAACAAATTTTCCTAATCTTTCTGTTCAAGCGCCATCTAC”, with 0.445; and “GATGATTGTTCTCCCAGCTGATGAATTCTGACCGTCGAGTAAACAAATTTTCCTAATCTTTCTGTTCAAGCGCCATCTAC”, with 0.388.
As to “GATGATTGTTCTCCCAGCTGATGAATTCTCCGACTCGAGTAAACAAATTTTCCTAATCTTTCTGTTCAAGCGCCATCTAC”, the binding signal (RPM ratio (pull-down/input)) amounted to 0.218.
The same measure for “GATGATTGTTCTCCCAGCTGATGAATTTAACTCTTCGAGTAAACAAATTTTCCTAATCTTTCTGTTCAAGCGCCATCTAC”: 0.383; for “GATGATTGTTCTCCCAGCTGATGAATTGGGCATTTCGAGTAAACAAATTTTCCTAATCTTTCTGTTCAAGCGCCATCTAC”: 5.5.
The same measure for “GATGATTGTTCTCCCAGCTGATGAATTTATGGCCTCGAGTAAACAAATTTTCCTAATCTTTCTGTTCAAGCGCCATCTAC”: 1.29; for “GATGATTGTTCTCCCAGCTGATGAATTAATACGCTCGAGTAAACAAATTTTCCTAATCTTTCTGTTCAAGCGCCATCTAC”: 0.487.
The same measure for “GATGATTGTTCTCCCAGCTGATGAATTCGAGTCGTCGAGTAAACAAATTTTCCTAATCTTTCTGTTCAAGCGCCATCTAC”: 0.55; for “GATGATTGTTCTCCCAGCTGATGAATTTGCGTCCTCGAGTAAACAAATTTTCCTAATCTTTCTGTTCAAGCGCCATCTAC”: 2.49; for “GATGATTGTTCTCCCAGCTGATGAATTCCGCCATTCGAGTAAACAAATTTTCCTAATCTTTCTGTTCAAGCGCCATCTAC”: 5.49.
For the sequence “GATGATTGTTCTCCCAGCTGATGAATTGCTCCTATCGAGTAAACAAATTTTCCTAATCTTTCTGTTCAAGCGCCATCTAC”, the binding signal (RPM ratio (pull-down/input)) stood at 0.548.
As to “GATGATTGTTCTCCCAGCTGATGAATTCGGCCTATCGAGTAAACAAATTTTCCTAATCTTTCTGTTCAAGCGCCATCTAC”, the binding signal (RPM ratio (pull-down/input)) worked out at 1.74.
The same measure for “GATGATTGTTCTCCCAGCTGATGAATTCAGCAAATCGAGTAAACAAATTTTCCTAATCTTTCTGTTCAAGCGCCATCTAC”: 0.539; for “GATGATTGTTCTCCCAGCTGATGAATTGCTGGGTTCGAGTAAACAAATTTTCCTAATCTTTCTGTTCAAGCGCCATCTAC”: 0.61; for “GATGATTGTTCTCCCAGCTGATGAATTATTTATCTCGAGTAAACAAATTTTCCTAATCTTTCTGTTCAAGCGCCATCTAC”: 2.19.
The same measure for “GATGATTGTTCTCCCAGCTGATGAATTGGGAGTGTCGAGTAAACAAATTTTCCTAATCTTTCTGTTCAAGCGCCATCTAC”: 0.883; for “GATGATTGTTCTCCCAGCTGATGAATTTCGTCATTCGAGTAAACAAATTTTCCTAATCTTTCTGTTCAAGCGCCATCTAC”: 1.56.
“GATGATTGTTCTCCCAGCTGATGAATTGGTGATCTCGAGTAAACAAATTTTCCTAATCTTTCTGTTCAAGCGCCATCTAC”: the binding signal (RPM ratio (pull-down/input)) was 0.824.
